Legend:
hGR [1] = target: T1, hGR (Homo sapiens, UniProt P04150); conditions: HMLN-hGR; with 3 nM dexamethasone; % of maximal luciferase activity induced by 100 nM dexamethasone; at 10^-5M
T1 sequence (P04150 1-777): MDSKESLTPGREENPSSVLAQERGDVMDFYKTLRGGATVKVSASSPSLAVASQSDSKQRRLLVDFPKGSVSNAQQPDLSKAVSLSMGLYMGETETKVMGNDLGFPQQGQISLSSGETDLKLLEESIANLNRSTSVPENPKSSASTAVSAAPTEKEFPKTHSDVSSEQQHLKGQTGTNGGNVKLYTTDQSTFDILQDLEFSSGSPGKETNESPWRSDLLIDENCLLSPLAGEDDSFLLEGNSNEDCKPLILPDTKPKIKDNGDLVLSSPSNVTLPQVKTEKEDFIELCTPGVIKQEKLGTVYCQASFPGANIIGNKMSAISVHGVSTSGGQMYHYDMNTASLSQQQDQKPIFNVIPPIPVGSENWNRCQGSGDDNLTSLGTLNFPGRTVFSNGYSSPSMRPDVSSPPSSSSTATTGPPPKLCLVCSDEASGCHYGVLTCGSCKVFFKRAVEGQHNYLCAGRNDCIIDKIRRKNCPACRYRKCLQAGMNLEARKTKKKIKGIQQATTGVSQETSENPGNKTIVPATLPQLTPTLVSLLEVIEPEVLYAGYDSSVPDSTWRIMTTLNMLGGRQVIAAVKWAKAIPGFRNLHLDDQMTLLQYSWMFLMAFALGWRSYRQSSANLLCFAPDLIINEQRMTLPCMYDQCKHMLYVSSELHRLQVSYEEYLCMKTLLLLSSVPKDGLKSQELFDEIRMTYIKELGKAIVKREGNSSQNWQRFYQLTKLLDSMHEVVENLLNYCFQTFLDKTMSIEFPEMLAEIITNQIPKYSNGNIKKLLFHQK

hGR [2] = target: T1, hGR; test: cell-based
zfGR = zfGR (Danio rerio, UniProt Q1XHK0); test: Antagonistic activity assessment in presence of 3 nM dexamethasone, UMLN-zfGR cells; type: cell-based, zebrafish

% min act (minimal activity) (zfGR; UMLN-zfGR, with 3 nM dexamethasone, % of maximal luciferase activity induced by 100 nM dexamethasone, at 10^-5M) [%] | IC50 (zfGR; read-out: IC50) [nM] | SMILES | % min act (minimal activity) (hGR [1]) [%] | IC50 (hGR [2]) [nM]
 |  | CC(=O)[C@H]1CC[C@H]2[C@@H]3C=CC4=CC(=O)CC[C@@]4(C)[C@@H]3CC[C@]12C [dydrogesterone] | 6 ± 1 | 2700
8 ± 2 | 1110 | CCC(=O)[C@@]1(C)CC[C@H]2[C@@H]3CCC4=CC(=O)CCC4=C3CC[C@@]21C [promegestone] |  | 
